The other results are listed elsewhere or left out.

The subject of the test is PfHDP1 homeodomain (GST-tagged). Put plainly: gcPBM binding intensity (ln(normalized median fluorescence intensity)); higher = stronger DNA binding. The method in brief:
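Each value is the highest Masliner-normalised natural-log median intensity across replicate spots of either orientation of a probe. The probes were primer-extended double-stranded 36-bp intergenic genomic sequences on an Agilent 4 × 180k array, alongside negative controls, exposed for 1 h to GST-tagged P. falciparum DNA-binding domains expressed in E. coli. Bound protein was picked up with Alexa488 anti-GST antibody and scanned at 488 nm.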
Regarding “ATAATTATTTAATATATATATATTATTTCGAATGTT [GTGCAC_negctrl_site688]”, the “gcPBM binding intensity (ln)” value stood at 6.98.
Take “TAATTATTTAAAAAGAGTACATTTTTTTTTTTTTTT [XGTACX_site1060]”: the “gcPBM binding intensity (ln)” value is 6.18.
For “TTTTCAAAAATATACACACACATAAATATCTGTATA [CACACA_site4586]”, the “gcPBM binding intensity (ln)” value was found to be 6.57.
In the case of “TAAATAAAAAAAAATCGTACATATATTTTATATATG [XGTACX_site3293]”, the “gcPBM binding intensity (ln)” value stood at 5.91.
Turning to “TCGTAATAATAGTTGAGTACGCACTAATATGTCAAT [XGTACX_site643]”, the “gcPBM binding intensity (ln)” value was determined as 6.9.
For the sequence “TATTTACATTTTAGTAGTACATATATGTATATATAT [XGTACX_site6839]”, the “gcPBM binding intensity (ln)” value came out at 6.86.
Next, “AATTATATGCTTAATACGCACACGGGAAAAAAAAAA [CACACA_site1376]”: 6.61.
The result for “CTTAAATTTAAGTTCACACATATTGGTCATTTATAT [CACACA_site5006]” reads 6.53; that for “CACTAAAATAGACACACACACACACGGATATAAATA [CACACA_site7873]”, 6.8.
On to “TTTATTTGTAACGGTTGTACTTGTATATCATTATGA [XGTACX_site4281]”, for which the “gcPBM binding intensity (ln)” value was determined as 6.58.
“CCACATTAAAAAAAAACACACATATATTATAGATAT [CACACA_site6662]”: the “gcPBM binding intensity (ln)” value was 6.54.
In the case of “AATGTACGTTTTATAACACACACACTAATAAAAAAA [CACACA_site9286]”, the “gcPBM binding intensity (ln)” value amounted to 6.68.
The result for “ATCTTCAAAAATATTAGTACACATGTATCATGAATT [XGTACX_site3872]” reads 6.61; that for “TAGATACATACACGCACACACATATATATATATATA [CACACA_site12]”, 9.42.
Take “TACTAAGAATTAATATAACAAAATAAAAAAAAAAAA [XGTACX_negctrl_site346]”: the “gcPBM binding intensity (ln)” value worked out at 6.13.
As to “ATACAGATATATAATACACACATAAATGTAACATTT [CACACA_site5864]”, the “gcPBM binding intensity (ln)” value stood at 6.95.
With “AAAATTAAAAATAACACACACATATATATATTTATA [CACACA_site2776]”, the “gcPBM binding intensity (ln)” value was 6.54.
As to “GATATTTTTTTCGAAAGTACAAAAAAAAATATTTCC [XGTACX_site4389]”, the “gcPBM binding intensity (ln)” value amounted to 6.16.
“ATATATATACCAAGTAGTACATTCTACAACTAATGT [XGTACX_site8653]”: the “gcPBM binding intensity (ln)” value came out at 6.48.
In the case of “TGTATGTATAAAAACGCATGTATGTATTTTACAATA [TGCATGCA_site767]”, the “gcPBM binding intensity (ln)” value was determined as 6.33.
For “ATGTATATATATATATGTACTAATTAGTAGTTTACG [XGTACX_site6272]”, the “gcPBM binding intensity (ln)” value worked out at 7.03.
As to “ACAAAATGTAGATATTGTACATATTGTAGATATTGT [XGTACX_site7619]”, the “gcPBM binding intensity (ln)” value amounted to 5.93.
With “TTTGACAAATTATTGTGTACACAATATTATTATATA [XGTACX_site8320]”, the “gcPBM binding intensity (ln)” value came out at 6.75.
“AATTAAAAAGAAAAAAGTACATATTTTTTTAAAAAA [XGTACX_site7384]”: the “gcPBM binding intensity (ln)” value turned out to be 6.42.
Regarding “AAATATATATTTCTTAGTACATATGTATTTTTTTTT [XGTACX_site938]”, the “gcPBM binding intensity (ln)” value stood at 6.48.
Turning to “ATATATATATATATGTGTACTAATAAGGTTAAATAA [XGTACX_site1535]”, the “gcPBM binding intensity (ln)” value is 9.09.
“AATAAAAAAGAATATACACACATAAATATAAAATAT [CACACA_site683]”: the “gcPBM binding intensity (ln)” value is 6.74.
For the sequence “TACAGACAGAAATGCACACACATATTTATATTTATA [CACACA_site7139]”, the “gcPBM binding intensity (ln)” value came to 9.88.
“CTTCCTTAGGAATGTACACACATATATAATATGTTG [CACACA_site461]”: the “gcPBM binding intensity (ln)” value worked out at 6.38.
Regarding “TTTACAGAAAGTTACATACACACTAATATTTACACC [CACACA_site1009]”, the “gcPBM binding intensity (ln)” value stood at 6.9.
In the case of “ATGAAGAAGTGTAAATGTACATTTTATGTAGAACAA [XGTACX_site6925]”, the “gcPBM binding intensity (ln)” value came to 6.85.
Turning to “ATTTAAGATTTAATCACACACATATAGATTATAGAC [CACACA_site7383]”, the “gcPBM binding intensity (ln)” value stood at 6.44.
Next, “TTATTTTTTTTTTATTGTACTAGGAAAATTTCGATA [XGTACX_site702]”: 6.13.
Regarding “TTTATATGTATTAAGTGTACACATATAATGTGTTTG [XGTACX_site6629]”, the “gcPBM binding intensity (ln)” value stood at 6.46.
Next, “TATAAGAGGATATATACACACAAAAATATGTACAGT [CACACA_site6885]”: 6.52.
The result for “ATTATATATATATAAACACACAAATATTTTTATATA [CACACA_site5005]” reads 6.5; that for “TAATATTAATCCTAGTGTACATTAATTTATATGTAT [XGTACX_site3583]”, 6.4; that for “ACCTATATAAGTTATACACACAAATATAGATATATA [CACACA_site7356]”, 6.69.
Regarding “CCAACATAGAGGGGCACACACATATATACCTAAAAA [CACACA_site5088]”, the “gcPBM binding intensity (ln)” value was 6.64.
“CTGTGTTTTGGTTGTACACACGCTACATTCTATATT [CACACA_site2698]”: the “gcPBM binding intensity (ln)” value worked out at 7.6.
The result for “AAAATAATTGTTTACACACCCATTTGTAATTTTACC [CACACA_site3614]” reads 6.32; that for “AGATTATAAAATTCTACACACATATATACCTATATA [CACACA_site5848]”, 6.37.
As for “ACCATACAGAATAATGCATGTTCCTTTTTATGAATA [TGCATGCA_site995]”, the “gcPBM binding intensity (ln)” value is 6.67.
Next, “TATACTTGTAAATGCACACATAAGATGCGACTAATG [CACACA_site2118]”: 9.37; “AAAAAAATAAAGGATATACACACTAATTATATATAT [CACACA_site2812]”: 6.6.
On to “AATAAATATATATACACACCCATATATATATATATA [CACACA_site2595]”, for which the “gcPBM binding intensity (ln)” value stood at 9.48.
For the sequence “GCGTATACTTGTAACGGTACACAGGAAATTATAGAA [XGTACX_site507]”, the “gcPBM binding intensity (ln)” value was 6.68.
Consider “AAGATACACCTTTTTAGTACTTACATTTTTTTTATT [XGTACX_site1373]”, for which the “gcPBM binding intensity (ln)” value came to 6.55.
In the case of “TCTTTGTTTTTTTTTTTTAAACAAAATCATCAAAGG [XGTACX_negctrl_site192]”, the “gcPBM binding intensity (ln)” value is 6.09.
Regarding “TATATATATGGACACACACACACCAAAGCGTAGCGC [CACACA_site4209]”, the “gcPBM binding intensity (ln)” value amounted to 6.71.
“TTAATGAAATATTATACACACAAAAAAATAATTTTA [CACACA_site4231]”: the “gcPBM binding intensity (ln)” value was 6.43.
The result for “TAATGTTGTTTCTGAGGTACACAATTTTTTTTATTT [XGTACX_site8035]” reads 6.15; that for “TACACTTTTTTTTGTACACACTAAAAAGATTAACAA [CACACA_site6037]”, 6.54.
Next, “TTTTTTTTTTGATGAGCACACATGTTTTTTCTTAGA [CACACA_site3171]”: 6.92; “AAAAAATATTTATGTTCACACATTTTATATATGATA [CACACA_site4821]”: 6.46; “AAATATTTTTAAAGAAGTACTTTTTAAAAATAATCT [XGTACX_site4897]”: 6.32.
With “TAATTTTCATATTTCTGTACATATATTATAAATATA [XGTACX_site3480]”, the “gcPBM binding intensity (ln)” value was 6.45.

These data come from the supplement of paper PMC11417369.
